Several values for one entry are separate records, joined by “and”; a condition that tells them apart may be missing. Identical values can stand only once. Out of some 16,000 compounds screened, about 40 (0.2%) were called active. About 1% were inconclusive and are not listed. Calls follow the shape of the dose curve; as a rule, active = well fitted activation curve with a large enough effect; inconclusive = small, poorly fitted or top-dose-only effect, or another doubt; inactive = no such curve, though single readings can be large or run the other way. Some of the results follow.
target: Rap guanine nucleotide exchange factor 4 (Homo sapiens) (UniProt Q8WZA2); experiment: Validation qHTS for agonist of cAMP-regulated guanine nucleotide exchange factor 4 (EPAC2); details: EPAC2 Rap1B BODIPY-GDP exchange, fluorescence; activation: stronger effect = higher value;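 also: exchange makes BODIPY-GDP fluorescence drop when released from Rap1B; series mostly up to about 150 µM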
Chain of UniProt Q8WZA2 (Q8WZA2 whole entry, looked up): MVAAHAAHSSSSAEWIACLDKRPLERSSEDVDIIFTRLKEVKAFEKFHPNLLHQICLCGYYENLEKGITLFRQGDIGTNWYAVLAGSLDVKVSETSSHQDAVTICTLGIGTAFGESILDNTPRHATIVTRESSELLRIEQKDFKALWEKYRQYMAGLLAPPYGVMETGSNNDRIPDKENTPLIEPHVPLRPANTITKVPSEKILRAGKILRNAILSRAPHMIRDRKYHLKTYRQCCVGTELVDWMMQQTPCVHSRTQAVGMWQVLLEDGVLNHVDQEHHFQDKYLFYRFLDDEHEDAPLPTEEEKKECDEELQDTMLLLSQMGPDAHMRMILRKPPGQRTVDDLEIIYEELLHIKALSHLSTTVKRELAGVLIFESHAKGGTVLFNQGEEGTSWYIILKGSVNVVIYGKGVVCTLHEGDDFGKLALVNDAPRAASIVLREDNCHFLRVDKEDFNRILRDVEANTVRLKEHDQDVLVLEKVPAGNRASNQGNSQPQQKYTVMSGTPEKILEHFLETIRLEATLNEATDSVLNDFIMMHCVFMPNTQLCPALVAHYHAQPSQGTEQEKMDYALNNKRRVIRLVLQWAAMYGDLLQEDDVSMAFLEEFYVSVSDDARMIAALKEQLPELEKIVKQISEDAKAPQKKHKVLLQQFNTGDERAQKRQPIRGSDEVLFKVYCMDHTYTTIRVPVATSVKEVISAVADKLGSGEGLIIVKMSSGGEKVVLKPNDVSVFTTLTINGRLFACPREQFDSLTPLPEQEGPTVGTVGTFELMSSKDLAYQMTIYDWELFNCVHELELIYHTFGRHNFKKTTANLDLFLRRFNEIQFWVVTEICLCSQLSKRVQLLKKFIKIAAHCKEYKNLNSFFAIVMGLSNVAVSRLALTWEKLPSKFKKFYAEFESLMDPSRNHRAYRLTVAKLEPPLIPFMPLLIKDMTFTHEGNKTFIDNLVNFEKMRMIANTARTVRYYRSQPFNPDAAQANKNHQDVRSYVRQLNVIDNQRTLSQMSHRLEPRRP
How it was run: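 Signal normalized against 6.5 mM cAMP as agonist control. Mix of EPAC2 (100 nM), RAP1B-BODIPY-GDP (250 nM) and GDP (50 uM) was read kinetically at 480/540 nm, every 5 min over 30 min, after 5 min room-temperature incubation with compound.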
% is scaled to controls: 0 for no effect and ±100 for the full control effect.

activation, inactive:
CCCC(=O)O 1.29%
CN1CCN(C2=Cc3ccccc3Oc3ccc(Cl)cc32)CC1 -0.86% and -5.76%
N=C(C[C@@H](O)COc1ccccc1-c1ccccc1)N1CCCCC1 -6.93%
C[C@]12CC[C@@H]3c4ccc(O)cc4CC[C@H]3[C@@H]1CC[C@@H]2OC(=O)CCC1CCCC1 -18.4% and 3.27%
O=C(Nc1ccccc1)N1CCCC2(CCN(S(=O)(=O)c3ccccc3)CC2)C1 -30%
Cc1cc(-c2ccnc(-n3ncc(C(=O)NCC4CCCO4)c3C3CC3)n2)c(C)s1 (stereo not drawn) -6.02%
COc1ccc(Oc2ncc3nc(C)c(=O)n(Cc4cccs4)c3n2)cc1 17%
OC1(c2cccnc2)CCN(Cc2ccc3c(c2)CN(Cc2cccc4nccnc24)CCO3)CC1 4.15%
COc1cccc(-c2nc(NCc3cccs3)c3ccccc3n2)c1 3.13%
Cn1nnnc1SCC1=C(C(=O)O)N2C(=O)C(NC(=O)C(OC=O)c3ccccc3)C2SC1 (stereo not drawn) -7.04%
N=C(N)c1ccc(OCCCOc2ccc(C(=N)N)cc2)cc1 -3.81%
CC(N)=NCCCC[C@@H](N)C(=O)O -15%
COc1ccc2[nH]c(I)c(CCNC(C)=O)c2c1 -8.32% and -1.72%
O=C(Oc1ccccc1)N1CCC2(CC1)CN(c1ccncc1)C2 6.05%
Cc1ccccc1-c1nc(NC2CC2)c2ccccc2n1 -10%
Cn1cccc1C(=O)N1CCC2(CCN(C(=O)Nc3cccc(C#N)c3)CC2)CC1 -24.6%
CCCCCCc1ccc(N2C[C@H](Cc3ccccc3)[C@@H](CC(=O)NCc3ccc(OC)cc3)C2=O)cc1 -25.9%
CO[C@@]1(NC(=O)CSCC#N)C(=O)N2C(C(=O)O)=C(CSc3nnnn3C)CS[C@@H]21 0.319% and -7.43%
NS(=O)(=O)c1cc(-c2nn[nH]n2)c(NCc2cccs2)cc1Cl -17.2%
COc1cc2nc(N3CCCC(O)C3)c(CNCc3ccccc3C(F)(F)F)cc2c(OC)c1OC (stereo not drawn) 6.54%
COc1ccc(-c2nc3cnc(N(C)C)nc3n(Cc3ccc(F)cc3)c2=O)cc1 -8.79%
COC(=O)[C@H](CC(C)C)N(Cc1ccccc1)S(=O)(=O)N(Cc1ccc(OC)cc1)[C@@H](CC(C)C)C(=O)OC -19.3%
O=C(CCn1c(=O)[nH]c2ccccc21)NCC1Cc2cc(Cl)cc(-c3ccncc3)c2O1 (stereo not drawn) -9.7%

From PubChem BioAssay AID1645887 (National Center for Advancing Translational Sciences (NCATS), 2021)
